Measured values as given in PubChem BioAssay AID1347073 (National Center for Advancing Translational Sciences (NCATS), 2019).
The whole screen tested about 45,000 compounds, of which about 200 (0.44%) were called active. Another 7% or so got no clear call; they are omitted. Calls come from the whole dose curve; as a rule, active = well fitted activation curve with a large enough effect; inconclusive = small, poorly fitted or top-dose-only effect; inactive = no such curve, though single readings can be large or run the other way. The list shows a part of the results.

Test: qHTS of TDP-43 Inhibitors: NCGC Sytravon Library Screen; note: 0% is about no effect; nearly all actives have a fitted effect of over 55% in size
Details: yeast TDP-43 toxicity rescue, BacTiter-Glo growth, 24 h; series mostly up to 46.1 µM; growth rescue (activation): at the top concentration
Procedure, shortened: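 TDP-43-expressing yeast, pregrown in raffinose, seeded at OD600 0.02 in galactose medium with compound for 24 hr at 30 deg C. Growth read by BacTiter-Glo luminescence, so rescue of toxicity appears as activation.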

| SMILES | growth rescue (activation) |
| --- | --- |
| Cc1nnc(Nc2ccc(O)cc2)[nH]c1=O | inactive: 1.88% |
| Cc1ccc(NC(=O)CN(C)C(=O)c2cc3ccccc3o2)cc1 | inactive: -5.14% |
| Cc1cc(-c2n[nH]c(=S)n2/N=C/c2ccc(C)s2)n[nH]1 | inactive: 20.7% |
| COc1ccc(CCNC2CC(=O)N(CCc3ccc(OC)c(OC)c3)C2=O)cc1 (configuration not stated) | inactive: -9.1% |
| COc1ccccc1/C=C/C=C1\Oc2c(ccc(O)c2CN2CCN(CCO)CC2)C1=O | inactive: -4.05% |
| CC(=O)c1ccc(N2CCN(c3ncccn3)CC2)cc1 | inactive: 20.6% |
| Nc1cc(=O)[nH]c(SCC(=O)Nc2cccc(S(=O)(=O)N3CCCCC3)c2)n1 | inactive: -1.76% |
| CCC(=O)N1CCC1(C)C(=O)NCc1ccc(SC)cc1 (configuration not stated) | inactive: -7.69% |
| COc1ccc(CN(C)c2ncnc(N)n2)cc1 | inactive: 12.6% |
| CCCCn1c(Cn2nc(C(=O)O)c3ccccc3c2=O)nc2cc(S(N)(=O)=O)ccc21 | inactive: -10.1% |
| Cc1ccc(Cn2c(SC(C)C(N)=O)nc3ccccc3c2=O)cc1 (configuration not stated) | inactive: 20.8% |
| COCC(C)n1c(C)cc(C(=O)COC(=O)c2nn(C)c(=O)c3ccccc23)c1C (configuration not stated) | inactive: 18.6% |
| CC[C@H](C)[C@H](NC(N)=O)C(=O)Nc1ccc(C)cc1 | inactive: 12.9% |
| COc1cc(C)c(NC(=O)C(=S)NCCc2ccccc2)cc1C | inactive: 5.83% |
| Cc1nc2ncccn2c1-c1csc(Nc2ccc(O)cc2)n1 | inactive: 7.87% |
| COCCNC(=O)Cn1cnc2c(cnn2-c2ccc(C)cc2)c1=O | inactive: -0.568% |
| CC(C)C(NC(=O)c1ccc(C(C)(C)C)cc1)C(=O)OCC(=O)NC(=O)Cc1ccccc1 (configuration not stated) | inactive: -0.721% |
| CC(NC(=O)COC(=O)c1cc(=O)c2ccccc2o1)c1ccccc1 (configuration not stated) | inactive: -2.66% |
| O=C(O)CCCCCNC(=O)/C=C/c1ccco1 | inactive: -0.107% |
| Cc1cccc(N(CC(=O)NC(C)(C)C)C(=O)CNC(=O)c2cccs2)c1 | inactive: 9.91% |
| CN(C)CCCN(CCCNC(=O)/C=N/O)Cc1ccccc1 | inactive: 11.4% |
| COc1ccc(F)cc1S(=O)(=O)n1nc(C)cc1C | inactive: 10.3% |
| CCN(CC)CCN1C(=O)C2C(C(=O)Nc3ccc(Br)cc3)C3C=CC2(O3)C1C(=O)NC1CCCCC1 (configuration not stated) | inactive: 5.82% |

| SMILES | growth rescue (activation) |
| --- | --- |
| CC1(NC(=S)NCCO)CCS(=O)(=O)C1 (configuration not stated) | inactive: 8.8% |
| Cn1c(CNC(=O)c2ccc3c(c2)OCO3)nnc1SCC(=O)Nc1ccccc1F | inactive: 15.2% |
| CCOC(=O)C1CCN(C(=O)C2COc3ccccc3O2)CC1 (configuration not stated) | inactive: 14.5% |
| CC1(C)NC(=O)N(CC(=O)OCC(=O)Nc2sccc2C#N)C1=O | inactive: 13.6% |
| CC(C)(C)C1CCc2c(sc(N)c2C(N)=O)C1 (configuration not stated) | inactive: 32.9% |
| CCN(CC)S(=O)(=O)c1cccc(NC(=O)COC(=O)c2cccs2)c1 | inactive: 8.75% |
| COc1ccccc1C(=O)N/C(=C\c1ccccc1)C(=O)NCc1ccco1 | inactive: 3.29% |
| COc1ccc(OC)c(CC(=O)Nc2ccc3c(c2)c(=O)n(C)n3Cc2cccc(C(F)(F)F)c2)c1 | inactive: -7.94% |
| COc1cc(NC(=O)CCc2ccccc2)c(C(=O)O)cc1OC | inactive: 4.79% |
| Cc1ccccc1OCC(O)Cn1c(=N)n(Cc2ccccc2)c2ccccc21 (configuration not stated) | inactive: 9.57% |
| C/C(N)=C(/C#N)C(=O)COC(=O)C1CSC2(c3ccc(F)cc3)CCC(=O)N12 (configuration not stated) | inactive: -7.8% |
| COc1ccc2c(CC(=O)NNC(=O)c3ccccc3F)coc2c1 | inactive: -8.66% |
| Cc1ccc(Sc2ncccc2C(=O)O)cc1 | inactive: 14.1% |
| CC1(C(=O)NS(=O)(=O)c2cccc(C#N)c2)CCN1C(=O)c1cccc2ccccc12 (configuration not stated) | inactive: 1.1% |
| N#CCCn1cc(C(=O)Nc2ccc([N+](=O)[O-])cc2)c(-c2cccs2)n1 | inactive: -15.8% |
| COc1ccc(-n2nc(C(=O)NCC(=O)NCCCN3CCOCC3)c3ccccc3c2=O)cc1 | inactive: 9.65% |
| O=C1C2C(c3ccccc3)(C(=O)N1c1ccc(Cl)cc1)C2(c1ccccc1)c1ccccc1 (configuration not stated) | inactive: 11.3% |
| CCOC(=O)CN(c1ccccc1)S(=O)(=O)c1ccc(F)cc1 | inactive: 26.2% |
| Cc1ccccc1-n1c(SCC(=O)Nc2ccc(Cl)cc2Cl)nc(O)cc1=O | inactive: 24.5% |
| Cc1ccc(S(=O)(=O)N2CCOCC2)cc1NC(=O)CN1CCC(Cc2ccccc2)CC1 | inactive: -6.52% |
| CCNc1oc(COc2cccc(C)c2)nc1C#N | inactive: 28.3% |
| COCC(C)n1c(-c2ccc3c(c2)NC(=O)CO3)csc1=Nc1ccc(OC(F)F)cc1 (configuration not stated) | inactive: 10.4% |
| COc1ccc(C2N(C(=O)CN3CCCC3)CCCN2S(=O)(=O)c2ccccc2)cc1 (configuration not stated) | inactive: 16% |

| SMILES | growth rescue (activation) |
| --- | --- |
| O=C(c1ccc([N+](=O)[O-])cc1)n1nc(-c2ccccc2)nc1NCc1ccc(F)cc1 | inactive: 5.9% |
| Cc1ccc(NS(=O)(=O)c2cc3c4c(cccc4c2)C(=O)NC3=O)cc1C | inactive: 26.6% |
| O=C(COC(=O)Cc1ccc(Cl)cc1Cl)NC1CC1 | inactive: 18.5% |
| CC(C)CCN(C(=O)CNC(=O)c1cccs1)C(C(=O)NC1CCCCC1)c1cccnc1 (configuration not stated) | inactive: -5.22% |
| O=C(COC(=O)c1ccccc1)Nc1cccc(S(=O)(=O)N2CCOCC2)c1 | inactive: -14.5% |
| O=C1NCCN(Cc2ccc(F)cc2)C1CC(=O)N1CC=C(c2ccccc2)CC1 (configuration not stated) | inactive: 6.72% |
| O=C(CCc1ccccc1)Nc1nc2c(F)cc(F)cc2s1 | inactive: 11.9% |
| CCC(NC(=O)c1cc(COc2ccc(Cl)cc2OC)on1)c1ccncc1 (configuration not stated) | inactive: 7.79% |
| CCC(NC(=O)c1ccccc1NC(=O)C(C)(C)C)C(=O)N1CC(C)OC(C)C1 (configuration not stated) | inactive: 7.71% |
| COc1ccc(CC(N)c2csc(Nc3cc(NCCCO)ncn3)n2)cc1 (configuration not stated) | inactive: 0.597% |
| CCc1cc(C(=O)OC)c(NC(=O)CC2SC(=NC)N(C)C2=O)s1 (configuration not stated) | inactive: 2.55% |
| Cc1nc2ccc(C(=O)Nc3ccc4c(c3)OCC(=O)N4)cn2c1N(C)C(=O)CCc1ccccc1 | inactive: 5.44% |
| COc1ccc(C(=O)N/N=C(\N)c2cc3ccccc3oc2=O)cc1 | inactive: -8.21% |
| Cc1ccc(Cn2ccc(NC(=O)C3C4CCC(C4)C3C(=O)O)n2)cc1 (configuration not stated) | inactive: 13.4% |
| Cc1ccc(NC(=O)c2sc(N)nc2-c2ccc([N+](=O)[O-])cc2)c(C)c1 | inactive: -1.31% |
| Cc1ccc2c(c1)C(=O)C(=O)N2Cc1ccc(OCCC(C)C)cc1 | inactive: -6.7% |
| CCc1nc2nc(C)c(NS(=O)(=O)c3ccc(Cl)s3)c(=O)n2[nH]1 | inactive: 11.2% |
| Cc1ccc(S(=O)(=O)c2c[nH]c3ccc(Cl)cc3c2=O)cc1 | inactive: 4.86% |
| COc1ccc(C(=O)O)cc1NC(=S)NC(=O)/C=C/c1ccc(C(C)C)cc1 | inactive: 2.28% |
| Cc1ccc(C)c(NC(=S)NNC(=O)c2cc3c(s2)CCC(C)C3)c1 (configuration not stated) | inactive: 30.6% |
| COc1cc(/C=C/C(=O)c2ccc(C)c([N+](=O)[O-])c2)cc(OC)c1O | inactive: -12.4% |
